According to ChEMBL document CHEMBL4888484, “Replenishing the malaria drug discovery pipeline: Screening and hit evaluation of the MMV Hit Generation Library 1 (HGL1) against asexual blood stage Plasmodium falciparum ,using a nano luciferase reporter read-out” (2022):
Values joined by “and” are separate entries in the source; they are usually repeats but may differ in a detail not shown here. Equal entries are not always repeated. Out of some 150,000 compounds screened, about 540 (0.36%) showed an effect of 50% or more. The list shows a part of the results.

Test system: Plasmodium falciparum
Assay: Primary screen in NF54 nanoGlo assay, in single point, at 2uM, 72h; a lower Z score goes with more inhibition
Assay type: functional, Erythrocyte
Details: timepoint 72 hour

| SMILES | % Inhibition [%] | Z score | % Inhibition (2 µM) |
| --- | --- | --- | --- |
| O=C(NCCN1CCCCC1)c1cn2ccnc(-c3ccc(F)cc3)c2n1 | 2 | -0.23 |  |
| COCCNC(N)=NCc1cccc(Cl)c1 | -7 | 1.02 |  |
| COc1cc(CC#N)c(Br)cc1OCC(F)(F)F | 3 | -0.57 |  |
| COCC1CN(C(CC(C)C)C(=O)O)CC(C)O1 (configuration not stated) | -8 | 1.19 |  |
| CN(C(=O)c1coc(COc2cccc(C(F)(F)F)c2)n1)C1CCOCC1 | 10 | -1.87 |  |
| O=C(Nc1ccccc1C#Cc1ccccc1NC(=O)C(c1ccccc1)c1ccccc1)C(c1ccccc1)c1ccccc1 | -8 | 0.89 |  |
| C[C@H]1CS(=O)(=O)C[C@H]1NC(=O)c1nnc(C(C)(C)C)s1 | -12 | 1.45 |  |
| N#CC1(CN2C(=O)c3ccccc3C2=O)CCC1 | -6 | 0.87 |  |
| CC[C@@H](C(=O)NC1CCCCC1)n1ncc(N(C)C)cc1=O | 11 | -1.74 |  |
| COc1ccc(-c2c(C(F)(F)F)n[nH]c2-c2ccc(OCc3ccccc3F)cc2O)cc1 | 79 | -11.69 |  |
| Cc1nc(COC(=O)C[C@H](C)N2CCCCC2=O)n[nH]1 | -4 | 0.5 |  |
| CN(C(=O)CCN1CCCS1(=O)=O)C1CCC(F)(F)CC1 | -6 | 1.12 |  |
| O=C(COc1ccc(F)cc1)N1CC[C@H](c2ccc3c(c2)OCO3)C1 | -2 | 0.33 |  |
| O=C(Cc1ccsc1)NCC1(N2CCOCC2)CCCCC1 | -10 | 1.42 |  |
| COCCN1C(=O)Cc2ccccc2[C@@H]1C(=O)N1CCN(c2cccc(Cl)c2)CC1 | 8 | -1.31 |  |
| CC(C)(C)OC(=O)NCc1cc(C(=O)N2CCCC3(CC3)C2)co1 | 6 | -0.83 |  |
| O=C(NCCN1CCOCC1)C1Cc2cc(C(F)(F)F)ccc2N2CCN(CCc3ccccc3)CC12 (configuration not stated) | -3 | 0.38 |  |
| O=C(NCC(=O)N1C2CCC1CC(CC(F)F)C2)N1CCCC1 (configuration not stated) | -2 | 0.39 |  |
| CCOc1ccc(Cl)cc1CNCCOCCO |  |  | -14% and -2% |
| COc1ccc(OCCCN)c(C(=O)N2CC(Oc3ccccc3F)C2)c1 | -15 | 1.35 |  |
| O=C(c1cnccn1)N1CC[C@]23C(=O)N(Cc4cn(nn4)CCCOc4cccc(c4)[C@@H]12)c1ccccc13 | -8 | 0.92 |  |

| SMILES | % Inhibition [%] | Z score | % Inhibition (2 µM) |
| --- | --- | --- | --- |
| O=C(Nc1cc(Oc2ccc3ccccc3c2Cl)ccc1Cl)c1cc(Cl)cc(Br)c1O | -11 | 1.32 |  |
| c1cc(CN2CCC[C@@]3(CCCO3)CC2)c2cccnc2c1 | 1 | -0.19 |  |
| Cc1cc(NC(=O)COC(=O)c2cc(Cl)cn2C)no1 | -7 | 0.87 |  |
| O=C(Cn1c(=O)[nH]c2c(-c3ccccc3F)c[nH]c2c1=O)N1CCN(c2ccccc2)CC1 | 8 | -1.14 |  |
| CN(Cc1ncc(Br)cn1)c1ncnc2c1CCCC2 | -6 | 1 |  |
| CC1(C)C(=O)Nc2ccc(C(=O)N3CCC(S(N)(=O)=O)CC3)cc21 | 17 | -2.13 |  |
| CC(C)(C)c1nnc(CN2CCC[C@H]2c2ccsc2)o1 | -8 | 1.2 |  |
| Cc1nnc(NC(=O)C2CC(=O)N(C)C2c2cccnc2)s1 (configuration not stated) | -1 | 0.13 |  |
| O=C(NC[C@@H](c1ccco1)N1CCCC1)c1cccnc1O | 9 | -0.78 |  |
| COc1ccccc1CCNC(=O)c1n[nH]c2c1CCCCC2 | 2 | -0.25 |  |
| O=C(c1cnn(-c2cccc(Cl)c2)c1C(F)(F)F)N1CCN(CCCOCC(F)(F)F)CC1 | -2 | 0.28 |  |
| O=C(NCCn1ccnn1)[C@@H]1[C@H]2[C@@H]3CC[C@@H](C3)[C@@H]12 | -10 | 1.1 |  |
| Cc1ccc(F)cc1CC(=O)N1C[C@@H]2CC[C@H]1CN(C(=O)c1ccccn1)C2 | -1 | 0.11 |  |
| CCc1nn2c(-c3cccnc3)ccnc2c1-c1ccc(Cl)cc1 | -3 | 0.36 |  |
| CC(=O)NCC1CCN(c2ncc(F)c(N(C)C)n2)CC1 | -13 | 1.27 |  |
| Cc1ccc(NC(=O)Nc2ccn(CCC#N)n2)cc1-c1ncco1 | 29 | -3.24 |  |
| c1cc(-c2nnn(C3CCCCC3)c2NC2CCCCC2)[nH]n1 | -4 | 0.7 |  |
| Cc1ccc2ncccc2c1-c1cncc(C(N)=O)c1 | 14 | -2.23 |  |
| CCOC(=O)N1CCC(NC(=O)c2cc(C(=O)Nc3cccc(CC)c3)ccc2CO)CC1 | -8 | 1.28 |  |
| CC1(C#N)CCN(C(=O)c2ccc3c(c2)C(C)(C)CO3)CC1 | -18 | 2.24 |  |
| O=C(N[C@H]1CC(=O)N(CCCc2ccccc2)C1)c1ccc2c(c1)OCO2 | 6 | -0.84 |  |

| SMILES | % Inhibition [%] | Z score | % Inhibition (2 µM) |
| --- | --- | --- | --- |
| CC[C@H](N)C(=O)N1CCC(Cc2ccccc2)C1C (some centres not stated) | 0 | -0.01 |  |
| CC1(C)COCCN1C(=O)c1cnn2cc(Br)cnc12 | -3 | 0.29 |  |
| COCCN1C[C@@H](Cc2cc(CO)ccn2)CC1=O | -3 | 0.44 |  |
| c1cc(-c2nnc3ccc(N4CCOC5(CCCCCC5)C4)nn23)cs1 | 1 | -0.2 |  |
| CCOC(=O)c1cc(-c2ccccc2)n(-c2cccc(C(=O)NC3CCCC(C)C3C)c2)c1C (configuration not stated) | -5 | 0.74 |  |
| CC(C)=Cc1oc2c(Cl)cc(Cl)cc2c1N1CCN(C)CC1 | -3 | 0.37 |  |
| CCN1CC2(CCN(C(=O)c3cccnc3)CC2)C[C@@H](c2ccccc2)C1=O | 2 | -0.25 |  |
| O=C1CC[C@@H](C(=O)N2CCC(OCc3ccc(Cl)c(Cl)c3)CC2)N1 | 1 | -0.09 |  |
| CNc1nc(CN2CCC[C@H]2c2nc3ccccc3s2)cs1 | -4 | 0.71 |  |
| CCOC(=O)[C@@H]1CN(C(=O)CC(C)C)CCN1C(=O)CC(C)C | -4 | 0.36 |  |
| N#Cc1c(COC(=O)c2ccc3cn[nH]c3c2)cn2ccccc12 | -9 | 1.4 |  |
| CC(C)(C)Oc1cccc(CN2CCc3nccc(N)c3C2)n1 | 0 | 0.03 |  |
| Cc1c(-c2ccc(Br)cc2)nn(C2CCCC2)c1-c1ccc(Br)cc1 | 28 | -3.22 |  |
| O=C(CNC(=O)c1ccc(Cl)cc1)Nc1ccc2[nH]c(=O)[nH]c2c1 | 30 | -0.27 |  |
| NC(=O)C1CCCCC1NCc1nc(C2CCCC2)no1 (configuration not stated) | -1 | 0.17 |  |
| Cc1cc(NC(=O)NC[C@H]2CCCS(=O)(=O)C2)no1 | 27 | -3.08 |  |
| Cc1cc(Oc2nc(N3CCCC3)nc3c2CN(S(=O)(=O)c2ccccc2)CC3)ccc1F | -2 | 0.23 |  |
| CCc1nc2ccccc2c(=O)n1Cc1noc([C@H](C)NC(=O)c2ccccc2)n1 | -6 | 0.67 |  |
| CCn1nc(CN[C@H]2CCOC2)c2ccccc21 | -10 | 1.89 |  |
| O=C(Nc1c(F)cccc1F)N1CCC[C@H](Oc2ccncc2)C1 | 5 | -0.62 |  |
| O=C(Cn1ncc2c([nH]c3ccccc32)c1=O)N1CCN(c2ccccn2)CC1 | 2 | -0.32 |  |

| SMILES | % Inhibition [%] | Z score | % Inhibition (2 µM) |
| --- | --- | --- | --- |
| O=C1CC[C@H](C(=O)N2CCN(Cc3ccc4c(c3)OCO4)CC2)CN1 | -38 | 4.47 |  |
| O=C1c2ccccc2C(=O)N1CCCN1CCC[C@H](C(F)(F)F)C1 | -9 | 1.33 |  |
| CC1OCCC1NCCOc1ccccc1Cl (configuration not stated) | -12 | 1.76 |  |
| C=CCn1cc(CN(CC)Cc2noc(C)n2)c(C)n1 | -5 | 0.63 |  |
| COCCN1CCC(CN2CCO[C@H](c3ccc(Cl)cc3)C2)CC1 | -7 | 0.81 |  |
| CC(=O)c1cccc(NC(=O)N2C3CCC2CN(C)C3)c1 | 27 | -3.04 |  |
| O=C(c1cc2cc(F)ccc2s1)N1C2CCC1CC(Oc1cccnc1)C2 (configuration not stated) | -6 | 0.7 |  |
| CCC(C)C(NCC(O)COC)c1nc(-c2ccc3c(c2)OCO3)no1 (configuration not stated) | -1 | 0.2 |  |
| Cn1nccc1NCc1ccc(Br)c2cccnc12 | 5 | -0.67 |  |
| COc1cccc(CNS(=O)(=O)c2cc(-c3nnc(C(=O)N4CCCC4)o3)sc2C)c1 | -7 | 0.99 |  |
| COC[C@@H]1OC[C@@]2(C)C3CC[C@@H](O)[C@@H](CC(=O)N4CCC(C)CC4)[C@]3(C)CC[C@H]2O1 (some centres not stated) | -1 | 0.17 |  |
| Cc1ncc(CN(C)C(=O)Nc2ccc(F)c(NC(=O)C3CCCCC3)c2)s1 | -6 | 0.57 |  |
| O=C(CCN1CCOC1=O)NC1CC1c1ccccc1C(F)(F)F (configuration not stated) | -21 | 1.97 |  |
| COc1ccc2nc(CS(=O)(=O)Cc3nnc(C4CCC4)n3C)sc2c1 | -5 | 0.77 |  |
| Cc1cnc(CNC(=O)c2cc(C)nc(C)c2)cn1 | -5 | 0.61 |  |
| CNC(=O)[C@@H](NC(=O)c1c(C)nsc1NC)C(C)C | -1 | 0.11 |  |
| CN(C)c1nsc(N[C@H]2C[C@H](c3nnc(CO)n3C3CC3)C2)n1 | 3 | -0.48 |  |
| COC(=O)[C@H](C)N1CCc2c1cccc2C(F)(F)F | -1 | 0.08 |  |
| O=C(c1ccccc1OC(F)F)N1CCN(Cc2c[nH]cn2)CC1 | -7 | 1.3 |  |
| O=C([C@@H]1COc2cc(S(=O)(=O)Nc3ccc(F)cc3)ccc2O1)N1CCOCC1 | -12 | 1.26 |  |
| CCOC(=O)C1=C(c2ccccc2)S/C(=C2/C(=S)C(C)(C)N(C(C)=O)c3cc(OC)ccc32)S1 | 2 | -0.31 |  |
